# The list shows a part of the results.
# Tests used:
# Assay in all cases: glycan array binding signal (z-score within array); higher = stronger binding
# Conditions in all cases: glycan notation: IUPAC condensed, linker removed
# [1] = target: Fuc(a1-2)Gal(b1-4)GlcNAc(b1-3)Gal(b1-4)GlcNAc(b1-2)Man(a1-3)[Fuc(a1-2)Gal(b1-4)GlcNAc(b1-3)Gal(b1-4)GlcNAc(b1-2)Man(a1-6)]Man(b1-4)GlcNAc(b1-4)GlcNAc
# How it was run: (§1)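 The binding signal is a Z-score computed within each array. Data were drawn from 3228 arrays in the Consortium for Functional Glycomics database, restricted to those with a known protein sequence. Scores were averaged over arrays of the same protein sequence at different concentrations or buffers, and over linkers, and negative values can be taken as non-binding.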
# [2] = target: Fuc(a1-2)Gal(b1-4)GlcNAc(b1-3)Gal(b1-4)GlcNAc(b1-3)Gal(b1-4)GlcNAc
# How it was run: as §1
# [3] = target: Fuc(a1-2)Gal(b1-4)GlcNAc(b1-3)GalNAc
# How it was run: as §1
# [4] = target: Fuc(a1-2)Gal(b1-4)GlcNAc(b1-3)[Fuc(a1-2)Gal(b1-4)GlcNAc(b1-6)]GalNAc
# How it was run: as §1
# [5] = target: Fuc(a1-2)Gal(b1-4)GlcNAc(b1-3)[Fuc(a1-3)[Gal(b1-4)]GlcNAc(b1-6)]Gal(b1-4)Glc
# How it was run: as §1
# [6] = target: Fuc(a1-2)Gal(b1-4)GlcNAc(b1-6)GalNAc
# How it was run: as §1
# [7] = target: Fuc(a1-2)Gal(b1-4)GlcNAc6S
# How it was run: as §1
# [8] = target: Fuc(a1-2)Gal(b1-4)[Fuc(a1-3)]GlcNAc
# How it was run: as §1
# [9] = target: Fuc(a1-2)Gal(b1-4)[Fuc(a1-3)]GlcNAc(b1-2)Man(a1-3)[Fuc(a1-2)Gal(b1-4)[Fuc(a1-3)]GlcNAc(b1-2)Man(a1-6)]Man(b1-4)GlcNAc(b1-4)[Fuc(a1-6)]GlcNAc
# How it was run: as §1
# [10] = target: Fuc(a1-2)Gal(b1-4)[Fuc(a1-3)]GlcNAc(b1-2)[Fuc(a1-2)Gal(b1-4)[Fuc(a1-3)]GlcNAc(b1-4)]Man(a1-3)[Fuc(a1-2)Gal(b1-4)[Fuc(a1-3)]GlcNAc(b1-2)Man(a1-6)]Man(b1-4)GlcNAc(b1-4)GlcNAc
# How it was run: as §1
# [11] = target: Fuc(a1-2)Gal(b1-4)[Fuc(a1-3)]GlcNAc(b1-3)Gal(b1-4)[Fuc(a1-3)]GlcNAc
# How it was run: as §1
# [12] = target: Fuc(a1-2)Gal(b1-4)[Fuc(a1-3)]GlcNAc(b1-3)Gal(b1-4)[Fuc(a1-3)]GlcNAc(b1-3)Gal(b1-4)[Fuc(a1-3)]GlcNAc
# How it was run: as §1
# [13] = target: Fuc(a1-2)Gal(b1-4)[Fuc(a1-3)]GlcNAc(b1-3)GalNAc
# How it was run: as §1
# [14] = target: Fuc(a1-2)Gal(b1-4)[Fuc(a1-3)]GlcNAc(b1-3)[Neu5Ac(a2-6)Gal(b1-4)GlcNAc(b1-6)]Gal(b1-4)Glc
# How it was run: as §1
# [15] = target: Fuc(a1-2)Gal3S(b1-4)GlcNAc
# How it was run: as §1
# [16] = target: Fuc(a1-2)Gal6S(b1-3)GlcNAc
# How it was run: as §1
# [17] = target: Fuc(a1-2)Gal6S(b1-3)GlcNAc6S
# How it was run: as §1
# [18] = target: Fuc(a1-2)Gal6S(b1-4)Glc
# How it was run: as §1
# [19] = target: Fuc(a1-2)Gal6S(b1-4)Glc6S
# How it was run: as §1
# [20] = target: Fuc(a1-2)[Gal(a1-3)]Gal
# How it was run: as §1
# [21] = target: Fuc(a1-2)[Gal(a1-3)]Gal(b1-3)GalNAc
# How it was run: as §1
# [22] = target: Fuc(a1-2)[Gal(a1-3)]Gal(b1-3)GalNAc(b1-3)Gal(a1-4)Gal(b1-4)Glc
# How it was run: as §1
# [23] = target: Fuc(a1-2)[Gal(a1-3)]Gal(b1-3)GlcNAc
# How it was run: as §1
# [24] = target: Fuc(a1-2)[Gal(a1-3)]Gal(b1-3)GlcNAc(b1-2)Man(a1-3)[Fuc(a1-2)[Gal(a1-3)]Gal(b1-3)GlcNAc(b1-2)Man(a1-6)]Man(b1-4)GlcNAc(b1-4)GlcNAc
# How it was run: as §1
# [25] = target: Fuc(a1-2)[Gal(a1-3)]Gal(b1-3)GlcNAc(b1-2)Man(a1-3)[Fuc(a1-2)[Gal(a1-3)]Gal(b1-3)GlcNAc(b1-2)Man(a1-6)]Man(b1-4)GlcNAc(b1-4)[Fuc(a1-6)]GlcNAc
# How it was run: as §1
# [26] = target: Fuc(a1-2)[Gal(a1-3)]Gal(b1-3)GlcNAc(b1-3)GalNAc
# How it was run: as §1
# [27] = target: Fuc(a1-2)[Gal(a1-3)]Gal(b1-3)GlcNAc(b1-6)GalNAc
# How it was run: as §1
# [28] = target: Fuc(a1-2)[Gal(a1-3)]Gal(b1-4)Glc
# How it was run: as §1
# [29] = target: Fuc(a1-2)[Gal(a1-3)]Gal(b1-4)GlcNAc
# How it was run: as §1
# [30] = target: Fuc(a1-2)[Gal(a1-3)]Gal(b1-4)GlcNAc(b1-2)Man
# How it was run: as §1
binder,measurement,setting,value
Threefoil (Haloarcula marismortui) (protein) GSSHHHHHHHHHHSSGLVPRGSHMGDGYYKLVARHSGKALDVENASTSDGANVIQYSYSGGDNQQWRLVDLGDGYYKLVARHSGKALDVENASTSDGANVIQYSYSGGDNQQWRLVDLGDGYYKLVARHSGKALDVENASTSDGANVIQYSYSGGDNQQWRLVDL,glycan array binding signal (z-score),[1],-0.024
same,glycan array binding signal (z-score),[2],-0.133
same,glycan array binding signal (z-score),[3],-0.049
same,glycan array binding signal (z-score),[4],-0.114
same,glycan array binding signal (z-score),[5],0.235
same,glycan array binding signal (z-score),[6],0.058
same,glycan array binding signal (z-score),[7],-0.285
same,glycan array binding signal (z-score),[8],-0.152
same,glycan array binding signal (z-score),[9],-0.217
same,glycan array binding signal (z-score),[10],-0.095
same,glycan array binding signal (z-score),[11],-0.301
same,glycan array binding signal (z-score),[12],-0.189
same,glycan array binding signal (z-score),[13],-0.142
same,glycan array binding signal (z-score),[14],-0.226
same,glycan array binding signal (z-score),[15],-0.199
same,glycan array binding signal (z-score),[16],-0.22
same,glycan array binding signal (z-score),[17],-0.15
same,glycan array binding signal (z-score),[18],-0.265
same,glycan array binding signal (z-score),[19],-0.153
same,glycan array binding signal (z-score),[20],-0.112
same,glycan array binding signal (z-score),[21],-0.209
same,glycan array binding signal (z-score),[22],-0.236
same,glycan array binding signal (z-score),[23],-0.123
same,glycan array binding signal (z-score),[24],-0.227
same,glycan array binding signal (z-score),[25],-0.156
same,glycan array binding signal (z-score),[26],-0.235
same,glycan array binding signal (z-score),[27],0.017
same,glycan array binding signal (z-score),[28],-0.335
same,glycan array binding signal (z-score),[29],-0.26
same,glycan array binding signal (z-score),[30],-0.123
